Test results as given in PubChem BioAssay AID2147 (National Center for Advancing Translational Sciences (NCATS), 2009).
Screen size: about 230,000 compounds; about 3,600 (1.6%) were called active. Inconclusive means that the source gave no clear call. Such entries were picked first, then a sample of the others. Calls follow the shape of the dose curve; as a rule, active = well fitted inhibition curve with a large enough effect (not every such curve was filed as active); inconclusive = small, poorly fitted or top-dose-only effect, or another doubt; inactive = no such curve, though single readings can be large or run the other way. Potencies of inconclusive entries are doubtful fits and often do not repeat.

What follows are compounds tested against Lysine-specific demethylase 4E (Homo sapiens) (UniProt B2RXH2) (assay: qHTS Assay for Inhibitors of Human Jumonji Domain Containing 2E (JMJD2E)). Conditions: JMJD2E catalytic domain, FDH-coupled NADH fluorescence (FDH is formaldehyde dehydrogenase); series mostly up to 57.1 µM; activity change, negative = inhibition: at the top concentration.
Sequence of UniProt B2RXH2 (B2RXH2 whole entry, looked up, the tested form may be a part): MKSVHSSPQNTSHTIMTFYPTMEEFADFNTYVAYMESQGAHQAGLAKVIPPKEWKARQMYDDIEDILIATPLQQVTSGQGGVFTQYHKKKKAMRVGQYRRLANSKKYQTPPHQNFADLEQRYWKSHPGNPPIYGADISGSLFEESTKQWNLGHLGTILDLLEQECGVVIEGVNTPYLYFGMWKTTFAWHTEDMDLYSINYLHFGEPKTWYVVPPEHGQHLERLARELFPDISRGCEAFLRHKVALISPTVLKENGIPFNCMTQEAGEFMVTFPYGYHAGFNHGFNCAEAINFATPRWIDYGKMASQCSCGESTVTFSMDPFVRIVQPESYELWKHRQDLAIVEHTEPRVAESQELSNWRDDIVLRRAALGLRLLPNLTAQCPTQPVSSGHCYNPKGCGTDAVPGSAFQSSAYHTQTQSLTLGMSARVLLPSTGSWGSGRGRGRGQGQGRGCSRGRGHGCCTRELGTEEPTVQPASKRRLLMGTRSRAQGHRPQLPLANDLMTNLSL
Also: nearly all actives have a fitted effect of over 50% in size.
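For activity change, negative = inhibition in this document: 0% = wells with enzyme and -100% = buffer wells without enzyme.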
Potency is read from the fitted curve at half-maximal effect; tags tell the direction and shape of the fitted curve.

SMILES	Potency	activity change, negative = inhibition
COc1ccc(-n2c(SCC(=O)N3CCCCC3C)nnc2-c2cccnc2)cc1 (stereo unspecified)	inconclusive: 39.8 µM [inhibitor, single point]	–
CCCC(=O)NC(=S)Nc1ccccc1C(F)(F)F	–	inactive: 8.43%
COc1cccc2c1nc(C)c1cc(C)oc12	inconclusive: 31.6 µM [inhibitor, partial curve]	–
Cc1cc(C(F)(F)F)nn2cnnc12	inconclusive: 39.8 µM [inhibitor, single point]	–
Cc1ccccc1NC(=O)CSc1nc(N)c(C#N)c(-c2cccs2)c1C#N	inconclusive: 22.4 µM [inhibitor, partial curve]	–
C1CCc2nnc(-c3nnc4n3CCCCC4)n2CC1	–	inactive: 2.3%
COc1ccc(-c2oc3ncnc(NCCCN4CCOCC4)c3c2-c2ccc(OC)cc2)cc1	inconclusive: 28.2 µM [inhibitor, partial curve]	–
O=C(N/N=C/c1cc(Br)cc(Br)c1O)c1cccc(S(=O)(=O)N2CCOCC2)c1	–	inactive: 3.53%
Cc1ccc(S(=O)(=O)c2cc(C#N)c(=O)[nH]c2N)cc1	inconclusive: 25.1 µM [inhibitor, single point]	–
O=C(NCCN1CCCCCC1)C1CCCN1S(=O)(=O)c1cccc2nsnc12 (stereo unspecified)	–	inactive: -15.7%
CCCCn1c(=O)c(CC(C)=O)nc2ccccc21	inconclusive: 39.8 µM [inhibitor, single point]	–
O=C(NN1C(=O)c2ccccc2NC1c1ccc([N+](=O)[O-])o1)c1ccc([N+](=O)[O-])cc1 (stereo unspecified)	–	inactive: -7.99%
Cc1ccc(C2C3=C(CC(C)(C)CC3=O)Nc3onc(C)c32)cc1 (stereo unspecified)	inconclusive: 28.2 µM [inhibitor, partial curve]	–
CCOC(=O)CCc1c(C)c2ccc(OCC(=O)OC(C)C)cc2oc1=O	inconclusive: 22.4 µM [inhibitor, partial curve]	–
COc1ccccc1CNC(=O)Nc1cccs1	–	inactive: 3.44%
CCOc1ccc(N=C(NN)c2ccc3ccccc3n2)cc1	inconclusive: 35.5 µM [inhibitor, single point]	–
CN=c1scc(-c2ccccc2F)n1/N=C/c1ccc(O)c(O)c1O	active: 10 µM	–
COc1ccc(-n2c(C)nc3cc(C(=O)NCc4ccco4)ccc32)cc1	–	inactive: -9.85%
C=CCNC(=O)CSc1nc2scc(-c3ccco3)c2c(=O)n1CC=C	–	inactive: -26.5%
COc1ccc(C2CC(C)(c3ccc(OC)cc3)Nc3ccccc3N2)cc1 (stereo unspecified)	inconclusive: 22.4 µM [inhibitor, single point]	–
COc1ccc(-c2cc(C(=O)OCC(=O)Nc3ccc4c(c3)OCO4)c3ccccc3n2)cc1	inconclusive: 3.55 µM [inhibitor, full curve]	–
COc1cccc(CCNC(=O)CC2C(=O)NCCN2CC(C)(C)C)c1 (stereo unspecified)	inconclusive: 31.6 µM [inhibitor, single point]	–
CCCN1Cc2cccc(C(=O)NC(CC(=O)OCC)c3ccc(OCC)c(OC)c3)c2C1=O (stereo unspecified)	–	inactive: 7.02%

SMILES	Potency	activity change, negative = inhibition
CN(C)CCCNc1ncnc2c1cnn2-c1ccccc1	inconclusive: 25.1 µM [inhibitor, partial curve]	–
CC(=O)c1cccc(N/C=C\c2nnnn2-c2ccc(F)cc2)c1	inconclusive: 39.8 µM [inhibitor, single point]	–
Cc1c(/C=C/C(=O)c2cccs2)cnn1C	inconclusive: 31.6 µM [inhibitor, partial curve]	–
COc1ccc(C(=O)C2CCCN(Cc3ccc(C#CCCO)cc3)C2)cc1F (stereo unspecified)	–	inactive: -21.5%
Cn1c(C(=O)N2CCCc3ccccc32)cc2c(=O)n3ccccc3nc21	inconclusive: 25.1 µM [inhibitor, partial curve]	–
Cc1ccc(-c2nc3cccnc3s2)cc1NS(C)(=O)=O	inconclusive: 28.2 µM [inhibitor, single point]	–
O=S(=O)(c1ccc(-c2csc(=Nc3ccccc3)n2CCCN2CCOCC2)cc1)N1CCOCC1	–	inactive: 1.2%
O=C(O)CSc1nc2c(cnn2-c2ccccc2)c(=O)n1-c1ccc(Br)cc1	–	inactive: -2.96%
COCCNC(=O)C(c1ccncc1)N(C(=O)c1sc(C)nc1C)c1cccc(C)c1 (stereo unspecified)	inconclusive: 39.8 µM [inhibitor, single point]	–
COC(=O)C1=C(C)OC(N)=C(C#N)C1c1cc(OC)c(OCC(N)=O)cc1Cl (stereo unspecified)	inconclusive: 39.8 µM [inhibitor, single point]	–
COC(=O)c1sc(-c2ccc(Cl)cc2)cc1NC(=O)COCC(=O)O	inconclusive: 31.6 µM [inhibitor, partial curve]	–
C=CCNC(=O)CCCOc1cc(C)ccc1C	–	inactive: -21.4%
O=C(COC(=O)c1cc[n+]([O-])cc1)Nc1ccccc1Sc1ccccc1	–	inactive: 14.5%
C[N+]12CCC(CC1)[C@@H](OC(=O)C(O)(c1ccccc1)c1ccccc1)C2	–	inactive: 7.08% [at 25.5 µM]
Cc1cccc(CN2CCN(Cc3cnn(-c4ccccc4F)c3)CC2CCO)n1 (stereo unspecified)	inconclusive: 39.8 µM [inhibitor, single point]	–
COc1cccc(/C(O)=C/c2nc3ccc(C(=O)NCCc4cccc(C)c4)cc3[nH]c2=O)c1	inconclusive: 39.8 µM [inhibitor, single point]	–
O=C(NCc1ccccn1)c1cc(-c2ccc(-c3ccccc3)cc2)nc2ccccc12	inconclusive: 31.6 µM [inhibitor, partial curve]	–
Brc1ccc(-c2nn3c(-c4ccco4)nnc3s2)o1	–	inactive: -13.1%
CCc1cc(=O)oc2cc(C)c3c(C)coc3c12	inconclusive: 3.55 µM [inhibitor, single point]	–
COc1ccc(OC)c(S(=O)(=O)NC(N)=NCCc2ccccc2OC)c1	–	inactive: -1.53%
COC(=O)[C@@]1(Cc2ccc(F)cc2)[C@H]2c3cc(C(=O)N4CCCC4)n(Cc4ccc(C)o4)c3C[C@H]2CN1C(=O)c1ccccc1	inconclusive: 28.2 µM [inhibitor, single point]	–
COc1cc(NC(=O)c2ccc3c(SCC(=O)O)c4c(nc3c2)CCCC4)cc(OC)c1OC	inconclusive: 39.8 µM [inhibitor, single point]	–
Cc1cccn2c(=O)c3cc(C#N)c(=NC(=O)c4cccs4)n(CCCOC(C)C)c3nc12	inconclusive: 35.5 µM [inhibitor, partial curve]	–
